The values below come from patent US20250051407A1, “De novo designed sequence-specific DNA binding proteins” (University of Washington, priority 2023, published 2025).

The test system of the experiment is 13 unique dsDNA targets. Briefly: All-by-all yeast surface display screen of DBP design hits. Type of experiment: binding. As to the method:
And an all-by-all screen of DBP design hits to 13 unique dsDNA targets was performed (FIG. 4, table 2). […] To try to understand these observed binding preferences, each tested DNA sequence was threaded onto each design complex model at all possible base pair alignments, the alternative complex models were relaxed with Rosetta™, and the model with the most favorable Rosetta™ ΔΔG was selected.
Saccharomyces cerevisiae EBY100 strain cultures were grown in C-Trp-Ura medium supplemented with 2% (w/v) glucose. For induction of expression, yeast cells were centrifuged at 6,000 g for 1 min and resuspended in SGCAA medium supplemented with 0.2% (w/v) glucose at the cell density of 1×10^7 cells per ml and induced at 30° C. for 16-24 h. […]
For yeast display characterization of individual designs, including competition assays, DNA sequences encoding the proteins of interest were purchased as Integrated DNA Technologies (IDT) E-Blocks™, transformed into yeast cells, and incubated in 96 well culture plates. […] For each individual sample, gating of the expression population was performed using the CytoFlow™ Gaussian Mixture Model and the ratio of SAPE channel intensity to FITC channel intensity (binding signal/expression signal) was calculated for all gated expression events of the sample.

B1: DBP85: designed DNA-binding protein, SEQ ID NO: 44, DNA target A (protein)
chain: TLSQLTPQEMRIARLASEGMPNREIATRLFISPRTVEWHLRRAMRKLGVRNRTQMARRIDTRL
In the case of B1, the “Number of the 13 tested DNA target sequences preferentially bound” value (1 μM dsDNA with avidity, including designed target sequence) is reported as “less than 3”. Moreover, the “Binding specificity versus design models” value (all-by-all screen with Rosetta-predicted motifs) is reported as “bound with specificity closely consistent with the design models”.
